Out of some 360,000 compounds screened, about 420 (0.12%) were called active. This list was built around the results that the source calls inconclusive (neither active nor inactive); the mix of calls is not that of the screen. Rule as the data show it: active = inhibition above about 30%; inconclusive = no clear call, values can overlap the other calls; inactive = below that.
target: Lethal factor (Bacillus anthracis) (UniProt P15917); test: anthrax lethal factor cleavage blockers – biochemical, multiplex microsphere, MLPCN library, primary screen (AID 588501); details: multiplex microsphere protease cleavage assay, LF; at 10 µM; stronger effect = higher value; also: plate controls were buffer without enzyme for full effect and enzyme alone for no effect
Chain of UniProt P15917 (P15917 whole entry, looked up): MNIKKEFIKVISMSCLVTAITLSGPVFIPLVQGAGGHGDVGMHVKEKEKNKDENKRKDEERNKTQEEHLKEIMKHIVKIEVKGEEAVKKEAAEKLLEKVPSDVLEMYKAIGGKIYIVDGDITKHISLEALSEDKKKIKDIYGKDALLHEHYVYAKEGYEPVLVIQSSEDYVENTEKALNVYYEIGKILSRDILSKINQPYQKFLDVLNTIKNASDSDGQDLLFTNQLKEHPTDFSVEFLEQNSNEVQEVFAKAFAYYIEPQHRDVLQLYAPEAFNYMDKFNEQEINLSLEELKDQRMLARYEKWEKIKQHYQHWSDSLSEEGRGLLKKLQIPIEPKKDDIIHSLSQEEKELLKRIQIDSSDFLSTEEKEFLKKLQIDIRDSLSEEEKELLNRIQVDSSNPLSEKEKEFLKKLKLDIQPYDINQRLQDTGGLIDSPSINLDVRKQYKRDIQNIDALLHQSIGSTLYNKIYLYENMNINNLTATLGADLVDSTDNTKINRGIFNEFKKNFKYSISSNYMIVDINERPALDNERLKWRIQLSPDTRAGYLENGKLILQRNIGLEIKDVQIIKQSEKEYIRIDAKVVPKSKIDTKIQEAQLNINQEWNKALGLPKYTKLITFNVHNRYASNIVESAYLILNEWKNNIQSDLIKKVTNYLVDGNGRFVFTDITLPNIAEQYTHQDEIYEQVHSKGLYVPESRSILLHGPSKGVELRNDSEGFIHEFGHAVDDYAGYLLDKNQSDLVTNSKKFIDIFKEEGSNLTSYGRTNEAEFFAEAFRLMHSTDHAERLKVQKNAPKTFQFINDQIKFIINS

Question: With `COc1ccc(OC)c(S(=O)(=O)N2CCC(C(=O)NCCC3=CCCCC3)CC2)c1` as the compound, how does the inhibition read?
Answer: inconclusive: -31.1%

Question: How did the inhibition turn out when `COC(=O)c1ccccc1N=Nc1c(C)noc1C` was run?
Answer: active: 33.6%

Question: How did the inhibition turn out when `O=C(COc1ncnc2c(Cl)cc(Cl)cc12)N1CCCCC1` was run?
Answer: inconclusive: -16%

Question: For `CC[C@]12c3[nH]c4ccccc4c3CCN1C(=O)C(CC(=O)NCCCn1ccnc1)C[C@@H]2C(=O)N1CCN(C(=O)c2ccco2)CC1` (some centres not stated), which inhibition is on record?
Answer: inactive: 5%

Question: `N/C(Cn1nnc(-c2ccccc2)n1)=N\O` was tested. Which inhibition did it give?
Answer: inconclusive: -2.9%

Question: How did the inhibition turn out when `Cc1cc(S(=O)(=O)Nc2ccc(C(=O)NCCCn3ccnc3)cc2)ccc1F` was run?
Answer: inconclusive: -3%

Question: For `CC1(C(=O)O)CCC(C(=O)Nc2ccccc2O)C1(C)C` (configuration not stated), which inhibition is on record?
Answer: inconclusive: -8.4%

Question: With `COc1ccc(CCNC(=O)COC(=O)c2ccccn2)cc1` as the compound, how does the inhibition read?
Answer: inactive: 1.3%

Question: With `COc1cccc(NC(=O)CN(C)C(=O)c2ccccc2OCc2c(C)noc2C)c1` as the compound, how does the inhibition read?
Answer: inconclusive: -6.8%

Question: With `CC#CC[N+](C)(C)CCCCCCCC` as the compound, how does the inhibition read?
Answer: inconclusive: -18.8%

Question: How did the inhibition turn out when `O=C(COc1ccc(Br)cc1Br)NC(=S)N1CCCc2ccccc21` was run?
Answer: active: 30.9%

Question: Which inhibition does the source give for `CCCCn1c(N)c(N(CCOC)C(=O)CSCc2cccc(C)c2)c(=O)[nH]c1=O` here?
Answer: inconclusive: -4.3%

Question: With `CCOC(=O)C1=C(c2ccccc2)N=c2s/c(=C\c3cc(OC)c(OC)c(OC)c3)c(=O)n2C1c1cccs1` (configuration not stated) as the compound, how does the inhibition read?
Answer: active: 33.9%

Question: With `Cc1nn(CC(=O)NCCc2ccc(Cl)cc2)c(=O)c2cccn12` as the compound, how does the inhibition read?
Answer: inactive: -1%

Question: How did the inhibition turn out when `COc1ccc(/C=C(/C#N)c2cccnc2)cc1OC` was run?
Answer: inactive: 13.4%

Question: For `CC1CCCN(S(=O)(=O)c2ccc(C(=O)Nc3sc4c(c3C(N)=O)CCN(C)C4)cc2)C1` (configuration not stated), which inhibition is on record?
Answer: inconclusive: -0.7%

Question: For `CCCC(C)NS(=O)(=O)c1ccc(OC)c(C)c1` (configuration not stated), which inhibition is on record?
Answer: inconclusive: -16.3%

Question: `COc1ccc([C@@H](O)[C@@H](N)c2ccccc2)cc1` was tested. Which inhibition did it give?
Answer: active: 38.4%

Question: With `Cc1ccc(-c2cnco2)cc1` as the compound, how does the inhibition read?
Answer: active: 29.7%

Question: For `Cc1oncc1C(=O)Nc1cccc2ccccc12`, which inhibition is on record?
Answer: inconclusive: -5.8%

Question: For `Cc1cc(C)n(-c2nc3c(c(=O)[nH]c(=O)n3C)n2CC(O)COc2ccccc2C)n1` (configuration not stated), which inhibition is on record?
Answer: inconclusive: -11.3%

Question: Which inhibition does the source give for `COc1ccc(OC)c(C2C(C(=O)c3ccco3)=C(O)C(=O)N2Cc2cccnc2)c1` (configuration not stated) here?
Answer: inconclusive: 48.1%

Question: How did the inhibition turn out when `COc1ccc(/C=N/n2c(-c3cc(C)[nH]n3)n[nH]c2=S)cc1OC` was run?
Answer: inconclusive: 6.5%

Question: With `O=C(O)COc1ccccc1C=NNC(=O)c1ccc(NS(=O)(=O)c2cccs2)cc1` as the compound, how does the inhibition read?
Answer: inactive: -0.1%

Question: Which inhibition does the source give for `Cc1ccc(-c2nc3ccc(Cl)cn3c2CC2CCCCC2)cc1` here?
Answer: inconclusive: -3.8%

Question: `Cc1nnc(SCCn2c(N3CCN(C)CC3)nc3c2c(=O)n(C)c(=O)n3C)s1` was tested. Which inhibition did it give?
Answer: inconclusive: 10.6%

Question: With `COCCN(C(=S)Nc1cccc(C)c1C)C(C)c1ccco1` (configuration not stated) as the compound, how does the inhibition read?
Answer: inconclusive: -6.4%

Question: How did the inhibition turn out when `O=C(NCc1ccc(F)cc1)C1CCCN1S(=O)(=O)c1ccccc1C(F)(F)F` (configuration not stated) was run?
Answer: inconclusive: -2.7%

Question: For `O=C(Cc1cccs1)N/N=C/c1ccccn1`, which inhibition is on record?
Answer: inconclusive: -6.2%

Question: Which inhibition does the source give for `CCOC(=O)C1=CNS(=O)(=O)NC1c1ccc(OC(C)=O)cc1` (configuration not stated) here?
Answer: inactive: -5.8%

Question: Which inhibition does the source give for `O=C(Cc1c(F)cccc1Cl)Nc1ccccc1C(=O)N1CCCCC1` here?
Answer: inconclusive: -2.3%

Question: Which inhibition does the source give for `O=C(OCC(=O)N1CCOCC1)c1cccc(S(=O)(=O)Nc2ccc(F)cc2)c1` here?
Answer: inconclusive: 23.4%

Question: How did the inhibition turn out when `CCCN(C(=O)c1ccc(N(C)S(=O)(=O)c2ccc(C)cc2)cc1)C1CCS(=O)(=O)C1` (configuration not stated) was run?
Answer: inconclusive: -5.6%

Question: With `Cc1ccc2nc(NCc3ccco3)c(C=NCc3ccco3)c(=O)n2c1` as the compound, how does the inhibition read?
Answer: inactive: -4.2%

Question: For `O=C(N/N=C/c1cccnc1)c1ccco1`, which inhibition is on record?
Answer: inconclusive: -1.7%

Question: Which inhibition does the source give for `COc1cc(Nc2ccn3nccc3n2)cc(OC)c1OC` here?
Answer: inactive: -5%

Question: `CCN1CCN(c2nc3ccccn3c(=O)c2/C=C(\C#N)S(=O)(=O)c2ccccc2)CC1` was tested. Which inhibition did it give?
Answer: active: 32.7%

Question: Which inhibition does the source give for `Cn1cnc2c(N/N=C/c3cccs3)ncnc21` here?
Answer: inconclusive: 2.7%

Question: Which inhibition does the source give for `COc1ccc(-c2nnc(N3CCC(C)CC3)c3ccccc23)cc1` here?
Answer: inconclusive: -21.6%

Question: `COc1cc(/C=C2\SC(=S)N(Nc3ncc(C(F)(F)F)cc3Cl)C2=O)cc(OC)c1OC` was tested. Which inhibition did it give?
Answer: active: 61.6%

Question: `Cc1ccc(OCCC(=O)OCC(=O)Nc2ccc(F)cc2)cc1` was tested. Which inhibition did it give?
Answer: inconclusive: 1%

Question: How did the inhibition turn out when `Cc1ccc(NC(=O)CCCNC(=O)c2ccc(Cl)cc2)cc1S(=O)(=O)N1CCCCC1` was run?
Answer: inconclusive: -5.5%

Question: Which inhibition does the source give for `O=C(CN1C(=O)CCS(=O)(=O)c2ccccc21)Nc1ccc(Cl)cc1` here?
Answer: inactive: 0.7%

Question: For `COc1nc(N(C)S(=O)(=O)c2ccc(C)cc2)nc(C)c1Cl`, which inhibition is on record?
Answer: inactive: -2.8%

Question: `Cc1ccc(OCC(=O)NNC(=O)c2ccc(-n3cncn3)c([N+](=O)[O-])c2)cc1` was tested. Which inhibition did it give?
Answer: inactive: 0.2%

Question: With `N/C(=N\OC(=O)/C=C/c1ccccc1Cl)c1cccnc1` as the compound, how does the inhibition read?
Answer: inconclusive: -6.3%

Question: How did the inhibition turn out when `O=S(=O)(N/N=C1/CC(c2ccccc2)Oc2ccccc21)c1ccc(Br)cc1` (configuration not stated) was run?
Answer: inconclusive: -121%

Question: For `CC(C)N1CC2(CC(c3ccccc3C(F)(F)F)=NO2)CN1C(=O)c1ccco1` (configuration not stated), which inhibition is on record?
Answer: inactive: -2.8%

Question: `CSc1ncccc1C(=O)Nc1nnc(C2CC2)s1` was tested. Which inhibition did it give?
Answer: inactive: -2.4%

Question: `CCN(CC(=O)NCc1ccc(F)cc1)C(=O)C1CCN(S(=O)(=O)c2ccc(C(C)C)cc2)CC1` was tested. Which inhibition did it give?
Answer: inactive: 4.3%

Question: For `N#Cc1c(N)n[nH]c1-c1cc2c([nH]1)CCCC2`, which inhibition is on record?
Answer: inconclusive: -21.6%

Question: With `O=C(Cn1nnc(-c2ccc(CN3CCOCC3)cc2)n1)NC1CCCCC1` as the compound, how does the inhibition read?
Answer: inconclusive: -9.2%

Question: How did the inhibition turn out when `CC1CCN(S(=O)(=O)CCNC(=O)c2ccc(F)cc2)CC1` was run?
Answer: inconclusive: 11.9%

Question: With `Cc1ccc(S(=O)(=O)C(C#N)c2nc3ccccc3nc2N2CCN(C)CC2)cc1C` (configuration not stated) as the compound, how does the inhibition read?
Answer: inconclusive: -8.5%

Question: Which inhibition does the source give for `CCOC(=O)C1=C(COC(=O)/C=C/c2ccccc2)NC(=O)NC1C` (configuration not stated) here?
Answer: inconclusive: -2%

Question: `Cc1cc(C)c2[nH]c(C(=O)N3CCC(n4nccc4NC(=O)C4CC4)CC3)c(C)c2c1` was tested. Which inhibition did it give?
Answer: inactive: -3%

Question: `N#Cc1ccc(C(=O)NN2C(=O)NC3(CCCCC3)C2=O)cc1` was tested. Which inhibition did it give?
Answer: inconclusive: -12.3%

Question: How did the inhibition turn out when `CCCC(C(=O)NC(C)(C)CC)N(CC1CCCO1)C(=O)CNS(=O)(=O)c1ccc(F)cc1` (configuration not stated) was run?
Answer: active: 29.8%

Question: How did the inhibition turn out when `CCN1CCN(Cc2c(C(=O)N/N=C(\C)c3ccc(Cl)cc3)nnn2-c2nonc2N)CC1` was run?
Answer: inactive: -0.4%

Question: With `CCOC(=O)C1CCN(c2ncnc3c2cnn3-c2ccc(OC)cc2)CC1` as the compound, how does the inhibition read?
Answer: inconclusive: -22.5%

Question: How did the inhibition turn out when `CCOC(=O)c1c(C)n(Cc2ccc3c(c2)OCO3)c2ccc(O)cc12` was run?
Answer: inconclusive: -286%

Question: Which inhibition does the source give for `CCc1nnc(NS(=O)(=O)c2ccc(N3C(=O)C4CC=C(Cl)CC4C3=O)cc2)s1` (configuration not stated) here?
Answer: inactive: -25%

Question: How did the inhibition turn out when `CCCCn1c(SCC(=O)N2CCCCC2)nc2cc(S(N)(=O)=O)ccc21` was run?
Answer: inactive: -0.9%

Question: `C#CCNC(=O)C[C@@H]1C[C@@]2(C(=O)OCC)CCCC=C2N(Cc2ccc3c(c2)OCO3)C1=O` was tested. Which inhibition did it give?
Answer: inactive: -1.6%

Question: With `CCN(CC)S(=O)(=O)c1ccc(C(=O)/C=C/c2ccc(-c3ccc([N+](=O)[O-])cc3)o2)cc1` as the compound, how does the inhibition read?
Answer: active: 47.5%

Question: For `O=S(=O)(c1ccc(N2CCC(c3ccc(Cl)cc3)=N2)cc1)N(CCO)CCO`, which inhibition is on record?
Answer: inconclusive: 4.9%

Question: Which inhibition does the source give for `Nc1nc(Nc2ccc(Cl)cc2)nc(NCc2ccco2)c1[N+](=O)[O-]` here?
Answer: inactive: -0.4%

Question: Which inhibition does the source give for `CCOC(=O)C1=C(COC(=O)c2ccc(Cl)nc2)NC(=O)NC1C` (configuration not stated) here?
Answer: inconclusive: -1.3%

Question: With `CNc1ccc(/C=C(\C#N)C(=O)Nc2ccccn2)cc1[N+](=O)[O-]` as the compound, how does the inhibition read?
Answer: active: 32.6%

Question: Which inhibition does the source give for `CCOc1cc(N2CCOCC2)c(OCC)cc1NC(=O)COC(=O)CCn1c(C)csc1=O` here?
Answer: inactive: 0.3%

Question: How did the inhibition turn out when `CC(C)CN(C(=O)CCCSc1nc2ccccc2[nH]1)c1c(N)n(Cc2ccccc2)c(=O)[nH]c1=O` was run?
Answer: inconclusive: 0.1%

Question: How did the inhibition turn out when `CCN(CC)CCCn1c2c(c(SCC(=O)Nc3ccccc3Cl)nc1=O)CCC2` was run?
Answer: inconclusive: 2.5%

Question: With `CCCC(C)C(=O)Nc1nnc(C)s1` (configuration not stated) as the compound, how does the inhibition read?
Answer: inconclusive: -0.9%

Question: How did the inhibition turn out when `COC(=O)c1nnn(CC(=O)Nc2ccc(C)c(F)c2)c1C(=O)OC` was run?
Answer: inconclusive: -16.3%

Question: Which inhibition does the source give for `O=C(O)CCCNC(=O)CCCNC(=O)C(c1ccccc1)c1ccccc1` here?
Answer: inactive: 0.8%

Question: With `COc1ccccc1NS(=O)(=O)c1ccc(C)c(NC(=O)C2CCCO2)c1` (configuration not stated) as the compound, how does the inhibition read?
Answer: inactive: -2.2%

Question: Which inhibition does the source give for `COc1ccc(CNC(=O)C2CCN(C(=O)N3CCOc4ccc(C)cc43)CC2)cc1` here?
Answer: inactive: -4.4%

Question: `Cc1ccc(S(=O)(=O)NCC(=O)OC(C)C(=O)c2ccccc2)cc1` (configuration not stated) was tested. Which inhibition did it give?
Answer: inactive: 0.4%

Question: With `CC(C)Cc1nnc(NC(=O)c2cc(-c3ccncc3)nc3ccccc23)s1` as the compound, how does the inhibition read?
Answer: inactive: -13.2%

Question: `Cn1cccc1/C=N/NC(=O)Cc1cccs1` was tested. Which inhibition did it give?
Answer: active: 43%

Question: With `CC(=O)c1cccc(NC(=O)N2CCCC2C(=O)Nc2ccc3c(c2)OCO3)c1` (configuration not stated) as the compound, how does the inhibition read?
Answer: inactive: -1.3%

Question: How did the inhibition turn out when `CCN(c1cccc(C)c1)S(=O)(=O)c1cc2c3c(c1)CCC(=O)N3CCC2` was run?
Answer: inconclusive: 0.8%

Question: For `CC(C)CN(C(=O)COC(=O)/C=C/c1ccc(Cl)c(Cl)c1)c1c(N)n(Cc2ccccc2)c(=O)[nH]c1=O`, which inhibition is on record?
Answer: inconclusive: -3%

Question: With `Cc1cc(OCC(=O)NCCCN2CCOCC2)cc(C)c1Cl` as the compound, how does the inhibition read?
Answer: inconclusive: -9.9%

Question: With `CC(=O)C1=C(O)C(=O)N(c2ccc(Br)cn2)C1c1ccc(Br)cc1` (configuration not stated) as the compound, how does the inhibition read?
Answer: inconclusive: -14.7%

Question: `Cc1ccc(C)c(SCC(=O)OCC(=O)NCCNC(=O)COC(=O)CSc2cc(C)ccc2C)c1` was tested. Which inhibition did it give?
Answer: inconclusive: 2.3%

Question: Which inhibition does the source give for `O=c1c2c3c(sc2n(CCN2CCCC2)c(=O)n1Cc1ccco1)CCCCC3` here?
Answer: inconclusive: -19.5%
